Reference: the supplement of paper PMC5790926

How the values were obtained:
[1] = system: H5-S-FLU in MDCK-SIAT1 cells; test: IC50 inhibition of H5-S-FLU (H5 HA pseudotyped influenza) infection
Experimental: (§1)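 MDCK-SIAT1 cells were pretreated for 3 h with two-fold drug dilutions, then exposed overnight to a single-cycle eGFP reporter particle coated with the named glycoprotein; eGFP read on fixed cells. Mostly one titration per compound; only inhibitors are listed.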

[2] = system: E-S-FLU (Zaire C15 EBOV-GP pseudotyped S-FLU) in MDCK-SIAT1 cells; test: IC50 inhibition of E-S-FLU (EBOV-GP pseudotyped influenza) infection
Experimental: as §1

Structure (SMILES)	IC50 inhibition of H5-S-FLU [1] [µM]	IC50 inhibition of E-S-FLU [2] [µM]
CCN(CC)CCO[C@H]1CC[C@@]2(C)C(=CC[C@@H]3[C@@H]2CC[C@]2(C)C(=O)CC[C@@H]32)C1	49.5	2.56
NC[C@@H]1O[C@H](C23CC4CC(CC(C4)C2)C3)Cc2c1ccc(O)c2O	15.6	8.6
O=C1NCCc2[nH]c(-c3ccncc3)cc21	15.7	21.3
Nc1nc(N)c2nc(CNc3ccc(C(=O)N[C@@H](CCC(=O)O)C(=O)O)cc3)cnc2n1 [Aminopterin]	0.2	0.2
COc1cc(NS(C)(=O)=O)ccc1Nc1c2ccccc2nc2ccccc12 [Amsacrine hydrochloride]	6.76	7.68
Cc1c(-c2ccc(-c3ccccc3F)cc2)nc2ccc(F)cc2c1C(=O)O [Brequinar sodium salt hydrate]	1.4	1.3
Clc1ccc(C(c2ccc(Cl)cc2)[n+]2ccn(CC(OCc3ccc(Cl)cc3Cl)c3ccc(Cl)cc3Cl)c2)cc1 (configuration not stated) [Calmidazolium chloride]	3.9	2.3
CCN(CC)CCCC(C)Nc1ccnc2cc(Cl)ccc12 (configuration not stated) [Chloroquine diphosphate]	67	5.44
CN1CCC[C@@H]1CCO[C@](C)(c1ccccc1)c1ccc(Cl)cc1 [Clemastine fumarate salt]	58.4	3.4
CN1CCC[C@@H]1CCO[C@](C)(c1ccccc1)c1ccc(Cl)cc1 [Clemastine]	50	4.3
Cc1cc(N)c2ccccc2[n+]1CCCCCCCCCC[n+]1c(C)cc(N)c2ccccc21 [Dequalinium chloride hydrate]	12.1	27.3
C[C@@H]1O[C@@H](O[C@H]2C[C@@H](O)[C@]3(CO)[C@H]4[C@H](O)C[C@]5(C)[C@@H]([C@@H]6COC(=O)C6)CC[C@]5(O)[C@@H]4CC[C@]3(O)C2)[C@H](O)[C@H](O)[C@H]1O [Dihydroouabain]	5.7	8.3
O=C(Nc1ccc([N+](=O)[O-])cc1Cl)c1cc(Cl)ccc1O [Niclosamide]	3.17	1.69
C=C[C@H]1CN2CC[C@H]1C[C@@H]2[C@@H](O)c1ccnc2ccc(OC)cc12 [Quinidine sulfate]		81.3
O=[N+]([O-])c1ccc2nc(N3CCNCC3)ccc2c1 [Quipazine, 6-nitro, maleate]		29.2
C=CCN1CCc2c(cc(O)c(O)c2Br)[C@@H](c2ccccc2)C1 [R(+)-6-Bromo-APB hydrobromide]		90.4
CCCN1CCc2cccc3c2[C@H]1Cc1ccc(O)c(O)c1-3 [R(-)-Propyl norapomorphine hydrochloride]		25.6
O=C(c1ccc(OCCN2CCCCC2)cc1)c1c(-c2ccc(O)cc2)sc2cc(O)ccc12 [Raloxifene HCl]	33.8	0.4
Nc1c(S(=O)(=O)O)cc(Nc2ccc(Nc3nc(Cl)nc(Nc4cccc(S(=O)(=O)O)c4)n3)c(S(=O)(=O)O)c2)c2c1C(=O)c1ccccc1C2=O [Reactive Blue 2]		65.8
NC(=O)c1ncn([C@@H]2O[C@H](CO)[C@@H](O)[C@H]2O)n1 [Ribavirin]	126	
Cc1nc2sccn2c(=O)c1CCN1CCC(=C(c2ccc(F)cc2)c2ccc(F)cc2)CC1 [Ritanserin]		16.2
C[C@@H](CN1CCC(Cc2ccccc2)CC1)[C@@H](O)c1ccc(O)cc1 [Ro 25-6981 HCl]		111
CC(=O)c1c(O)c(C)c(O)c(Cc2c(O)c3c(c(C(=O)/C=C/c4ccccc4)c2O)OC(C)(C)C=C3)c1O [Rottlerin]		6.25
N.N.N.N.N.N.N.N.N.N.N.N.N.N.O.O.[Cl-].[Cl-].[Cl-].[Cl-].[Cl-].[Cl-].[Ru+4].[Ru+5].[Ru+5] [Ruthenium red]		141
CCCC(C(=O)OCCN(CC)CC)(c1ccccc1)c1ccccc1 [SKF525A HCl]		3.6

Structure (SMILES)	IC50 inhibition of H5-S-FLU [1] [µM]	IC50 inhibition of E-S-FLU [2] [µM]
C=CCN1C[C@H](C)N([C@H](c2ccc(C(=O)N(CC)CC)cc2)c2cccc(OC)c2)C[C@H]1C [SNC80]		53.2
O=C(CCCN1CCC2(CC1)C(=O)NCN2c1ccccc1)c1ccc(F)cc1 [Spiperone]		52.4
CC(=O)S[C@@H]1CC2=CC(=O)CC[C@]2(C)[C@H]2CC[C@@]3(C)[C@@H](CC[C@@]34CCC(=O)O4)[C@H]12 [Spironolactone]	33.1	30.4
CCN(CC)CCNC(=O)c1c(C)[nH]c(/C=C2\C(=O)Nc3ccc(F)cc32)c1C [Sunitinib malate]		9.7
CC/C(=C(\c1ccccc1)c1ccc(OCCN(C)C)cc1)c1ccccc1 [Tamoxifen citrate]		0.2
CC/C(=C(\c1ccccc1)c1ccc(OCCN(C)C)cc1)c1ccccc1 [Tamoxifen]		1.8
CC(C)(C)c1ccc(C(O)CCCN2CCC(C(O)(c3ccccc3)c3ccccc3)CC2)cc1 (configuration not stated) [Terfenadine]		3.37
CCCCNc1ccc(C(=O)OCCN(C)C)cc1 [Tetracaine hydrochloride]		124
COc1ccc2cc1Oc1ccc(cc1)C[C@H]1c3cc(c(OC)cc3CCN1C)Oc1c(OC)c(OC)cc3c1[C@H](C2)N(C)CC3 [Tetrandrine]		1.63
CSc1ccc2c(c1)N(CCC1CCCCN1C)c1ccccc1S2 (configuration not stated) [Thioridazine hydrochloride]		6
CNCC[C@@H](Oc1ccccc1C)c1ccccc1 [Tomoxetine]		29.4
CN(C)CCOc1ccc(/C(=C(/CCCl)c2ccccc2)c2ccccc2)cc1 [Toremifene]		0.151
Nc1nc(N)c2nc(-c3ccccc3)c(N)nc2n1 [Triamterene]	132	85.2
CN1CCN(CCCN2c3ccccc3Sc3ccc(C(F)(F)F)cc32)CC1 [Trifluoperazine dihydrochloride]		4.4
O=C(CCCN1CCC(O)(c2cccc(C(F)(F)F)c2)CC1)c1ccc(F)cc1 [Trifluperidol hydrochloride]		48.9
OC(CCN1CCCCC1)(c1ccccc1)C1CCCCC1 (configuration not stated) [Trihexyphenidyl hydrochloride]		37.3
CC(CN(C)C)CN1c2ccccc2CCc2ccccc21 (configuration not stated) [Trimipramine maleate]		10.1
CCN(CC)CCOc1ccc(C(O)(Cc2ccc(Cl)cc2)c2ccc(C)cc2)cc1 (configuration not stated) [Triparanol]		1.13
Cc1ccc(/C(=C\CN2CCCC2)c2ccccn2)cc1 [Triprolidine hydrochloride]		124
N#C/C(=C\c1ccc(O)c(O)c1)C(N)=S [Tyrphostin 47]		77.8
COc1cc2ncnc(Nc3cccc(Cl)c3)c2cc1OC [Tyrphostin AG 1478]	141	115
CC[C@]1(O)C[C@@H]2CN(CCc3c([nH]c4ccccc34)[C@@](C(=O)OC)(c3cc4c(cc3OC)N(C)[C@H]3[C@@](O)(C(=O)OC)[C@H](OC(C)=O)[C@]5(CC)C=CCN6CC[C@]43[C@@H]65)C2)C1 [Vinblastine sulfate salt]		22
COC[C@H]1OC(=O)c2coc3c2[C@@]1(C)C1=C(C3=O)C2CCC(=O)[C@@]2(C)C[C@H]1OC(C)=O (some centres not stated) [Wortmannin from Penicillium funiculosum]		64.7
Cc1cc(C(C)(C)C)cc(C)c1CC1=NCCN1 [Xylometazoline hydrochloride]		54.2
OCCN1CCN(CC/C=C2/c3ccccc3Sc3ccc(C(F)(F)F)cc32)CC1 [cis(Z)-Flupenthixol dihydrochloride]		7.8

Structures can show the parent of a compound that is named as a salt. Inhibition of entry of single-cycle reporter particles into MDCK-SIAT1 cells, 3 h drug pretreatment, overnight read-out. IC50, lower = stronger. No active / inactive call; only inhibitors are listed. Mostly one titration per compound.
